Reference: PubChem BioAssay AID886 (National Center for Advancing Translational Sciences (NCATS), 2007)
Values joined by “and” are separate entries in the source; they are usually repeats but may differ in a detail not shown here. Equal entries are not always repeated. About 2,500 (3.4%) of roughly 73,000 compounds were called active. Inconclusive means that the source gave no clear call. Such entries were picked first, then a sample of the others. Calls follow the shape of the dose curve; as a rule, active = well fitted inhibition curve with a large enough effect; inconclusive = small, poorly fitted or top-dose-only effect; inactive = no such curve, though single readings can be large or run the other way. Potencies beside an inconclusive call are fits to weak or partial responses and may not hold up.

target: 3-hydroxyacyl-CoA dehydrogenase type-2 (Homo sapiens) (UniProt Q99714); assay: qHTS Assay for Inhibitors of HADH2 (Hydroxyacyl-Coenzyme A Dehydrogenase, Type II); conditions: recombinant HADH2, NADH fluorescence, beta-hydroxybutyryl-CoA; activity change, negative = inhibition: at 57.1 µM (top of the series); also: nearly all actives have a fitted effect of over 60% in size
UniProt Q99714, sequence (Q99714 whole entry, looked up): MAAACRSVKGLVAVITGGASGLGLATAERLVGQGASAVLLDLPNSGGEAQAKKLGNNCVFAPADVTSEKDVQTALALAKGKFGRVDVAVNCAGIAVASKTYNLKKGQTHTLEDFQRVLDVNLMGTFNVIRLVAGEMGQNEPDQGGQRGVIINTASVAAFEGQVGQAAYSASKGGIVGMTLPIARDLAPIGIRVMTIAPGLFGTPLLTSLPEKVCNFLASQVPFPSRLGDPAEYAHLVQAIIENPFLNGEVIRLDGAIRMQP
UniProt Q99714, sequence (Q99714 whole entry, looked up): as above
In short: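 His-tagged recombinant enzyme from E. coli, 20 nM, preincubated 15 min RT with compound; reaction started with 1 mM NAD+ and 90 uM beta-hydroxybutyryl-CoA in 100 mM Tris-HCl pH 9.0. NADH fluorescence (ex 360/em 450) read over 4 min; last-minus-first difference.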
% is scaled to controls: 0 for no effect and ±100 for the full control effect; potency is read from the fitted curve at half-maximal effect; tags tell the direction and shape of the fitted curve.

| SMILES | Potency | activity change, negative = inhibition |
| --- | --- | --- |
| O=C1c2ccccc2C(Nc2ccc(-c3nc4ccccc4[nH]3)cc2)N1Cc1ccco1 (stereo not drawn) | inconclusive: 39.8 µM [inhibitor, single point] |  |
| COc1ccc(C(=O)CSc2nnc(-c3ccoc3C)n2CC2CCCO2)cc1 (stereo not drawn) | inconclusive: 39.8 µM [inhibitor, single point] |  |
| COc1ccc(C2CC(=O)C3=C(C2)Nc2ncnn2C3c2ccccc2)cc1 (stereo not drawn) | active: 31.6 µM |  |
| CC(=O)OCC(=O)Nc1ccc(Cl)cc1Cl | inactive |  |
| CC(NC(=O)Nc1ccccc1)c1ccccc1 (stereo not drawn) | inconclusive: 39.8 µM [inhibitor, single point] |  |
| COc1ccc(NC(=O)c2ccco2)c(OC)c1 | inactive |  |
| CCc1ccccc1N(CC(=O)NCc1ccco1)C(=O)c1snc(C(N)=O)c1N | inconclusive: 20 µM [inhibitor, single point] |  |
| c1ccc(Cc2nnc3sc(-c4ccc5c(c4)OCO5)nn23)cc1 | active: 10 µM |  |
| Cc1ccc(OCC(=O)Nc2cccc(C)n2)c(C)c1 | inconclusive: 25.1 µM [inhibitor, single point] |  |
| O=C(CSc1nnc(-c2ccco2)o1)c1ccccc1 | inconclusive: 25.1 µM [inhibitor, partial curve] |  |
| CCOC(=O)CNc1c(-c2ccc(O)cc2)nc2ccccn12 | inconclusive: 25.1 µM [inhibitor, single point] |  |
| O=C(NCc1ccccc1F)C1CCCN1C(=O)NCc1ccccc1 (stereo not drawn) | inactive |  |
| COc1ccccc1-c1cncnc1NCCNC(C)=O | active: 15.8 µM |  |
| Cc1noc(C)c1-c1ccc2ncnc(NCCN3CCOCC3)c2c1 | inconclusive: 31.6 µM [inhibitor, single point] |  |
| CCCCCn1c(=O)[nH]c2cc(C(=O)NCCN3CCOCC3)ccc2c1=O | active: 25.1 µM |  |
| O=C(CSc1nc(Nc2ccccc2)nc(N2CCOCC2)n1)N1CCc2ccccc21 | inactive |  |
| CC(=O)Nc1nc(C(=O)Nc2c(C)n[nH]c2C)cs1 | inactive |  |
| O=C(O)/C=C\c1c2ccc(=O)c(O)c-2oc2c(O)c(O)ccc12 | active: 1 µM |  |
| Cc1cc(Nc2ccc(Br)c(C)c2)n2nc(C)nc2n1 | inactive |  |
| CCCOc1ccc(NC(=O)C2CC(=O)N3CCCN=C3S2)cc1 (stereo not drawn) | active: 20 µM |  |
| O=c1c2ccccc2nc2n1CCCCC2 | inactive |  |
| Cc1nnc(SCC(=O)Nc2cc(C(F)(F)F)ccc2N2CCOCC2)o1 | inconclusive: 1.26 µM [inhibitor, full curve] |  |
| CC1CN(C(=O)Nc2ccc3snnc3c2)c2ccccc21 (stereo not drawn) | inconclusive: 39.8 µM [inhibitor, single point] |  |
| COc1ccc(CC(=O)Nc2ccc(-c3noc(COc4ccccc4C)n3)cc2)cc1 | inactive |  |

| SMILES | Potency | activity change, negative = inhibition |
| --- | --- | --- |
| CC(C)=CCC/C(C)=C/CO/N=C1/C[C@@H](O)[C@@H](O)[C@@H]2[C@@H]3C(=O)N(c4cccc(Oc5ccccc5)c4)C(=O)[C@H]3CC[C@H]12 |  | inactive: 12.6% [at 11.4 µM] |
| COC(=O)C1=C(C)NC2=C(C(=O)c3ccccc32)C1c1ccc(-c2ccc(C(=O)O)cc2)o1 (stereo not drawn) | inconclusive: 15.8 µM [inhibitor, partial curve] |  |
| Cc1cccc(N2C(=O)SC(N(CC(=O)O)c3cccc(C)c3)C2=O)c1 (stereo not drawn) | inconclusive: 20 µM [inhibitor, partial curve] |  |
| CC(C)(C)N(Cc1cc2ccccc2[nH]c1=O)C(=O)c1cccnc1 | inactive |  |
| c1ccc(-c2noc(-c3ccc4ccccc4c3)n2)cc1 | inconclusive: 20 µM [inhibitor, single point] |  |
| Cc1cc(C)n2nc(Nc3ccccc3)cc2n1 | inactive |  |
| Cn1c2ccccc2c2c(C(=O)O)cn(C3CCCC3)c(=O)c21 | inconclusive: 10 µM [inhibitor, partial curve] |  |
| N#Cc1nc(-c2ccc(F)cc2)oc1NCc1cccc2c1OCO2 | inconclusive: 39.8 µM [inhibitor, single point] |  |
| O=c1cc(-c2ccccc2)oc2cc(O)c(O)c(O)c12 | active: 2.51 µM and active: 3.98 µM |  |
| O=C(CSc1ccccc1)Nc1ccncc1 | inconclusive: 31.6 µM [inhibitor, partial curve] |  |
| CCOC(=O)c1sc2nc(N3CCOCC3)c3c(c2c1N)CCN(C)C3 | inconclusive: 39.8 µM [inhibitor, single point] |  |
| Cc1cccc(N2CCN(C(=O)c3cn(C)c(=O)c4c3c3ccccc3n4C)CC2)c1C | inconclusive: 39.8 µM [inhibitor, single point] |  |
| Nc1nnc(-c2ccccc2Cl)s1 | inconclusive: 25.1 µM [inhibitor, partial curve] |  |
| Cc1cccn2c(=O)c3cc(C#N)c(=O)n(-c4c(C)n(C)n(-c5ccccc5)c4=O)c3nc12 | inconclusive: 1.26 µM [inhibitor, full curve] |  |
| COc1ccc(C2=CSC3=NCCN23)cc1F | inconclusive: 31.6 µM [inhibitor, single point] |  |
| O=C1C2C3C=CC(CO)(O3)C2C(=O)N1c1ccccc1-c1ccccc1 (stereo not drawn) | inconclusive: 0.0316 µM [inhibitor, full curve] |  |
| CC1C2CC(CC1(C)C)N(C(=O)Nc1ccc3nccnc3c1)C2 (stereo not drawn) | inconclusive: 20 µM [inhibitor, single point] |  |
| Nc1nc(N2CCCCC2)nc2ccccc12 | active: 0.501 µM |  |
| CCN(CC)c1cccc(OC2=NS(=O)(=O)c3ccccc32)c1 | inconclusive: 25.1 µM [inhibitor, single point] |  |
| CS(=O)(=O)Nc1cccc(-c2nc(NCc3cccnc3)c3ccccc3n2)c1 | inconclusive: 39.8 µM [inhibitor, single point] |  |
| Cc1cc(C)c2nc(N)sc2c1 | inconclusive: 3.16 µM [inhibitor, single point] |  |
| COCCNc1ncnc2ccc(-c3cccc(NS(C)(=O)=O)c3)cc12 | inactive |  |
| CC1(C)Cc2c(c(=S)nc(-c3ccccc3)n2CCO)CO1 | inconclusive: 39.8 µM [inhibitor, single point] |  |
| Nc1c(S(=O)(=O)c2ccccc2)c2nc3ccccc3nc2n1Cc1ccco1 | active: 25.1 µM |  |
